Molecules are shown by their SMILES. Among all 43,000 compounds or so, about 200 (0.47%) were called active. About 12% were inconclusive and are not listed. The call rests on the fitted dose curve; in most records, active means well fitted cell-killing curve with a large enough effect; inconclusive means small, poorly fitted or top-dose-only effect, or effect the other way; inactive means flat fitted curve, though single readings scatter. This is one part of the list.
On the % scale 0 is the no-effect control and ±100 the full control effect; potency means the concentration at half of the fitted maximal effect.

A short description of the experiment: Cell viability qHTS assay in S16 Pmp22-F2sN cells. Further: nearly all actives have a fitted effect of over 65% in size. Particulars: S16 Pmp22-F2sN Schwann cells viability, CellTiter-Glo, 24 h; series mostly up to 57.5 µM; activity change, negative = cytotoxicity: at the top concentration. An outline of the steps:
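Viability was measured by CellTiter-Glo luminescence (15 min, room temperature). This followed 24 h at 37 °C of compound exposure (23 nL pin transfer) in S16 Pmp22-F2sN Schwann cells, 500-1,000 per well.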
In general terms: In qHTS, concentration-response curves come from the screen itself.
For `CCc1ccc(C(=O)c2c(N)c(-c3nc(-c4ccc5c(c4)OCO5)cs3)c3ccccn23)cc1`, the “activity change, negative = cytotoxicity” value was inactive: 11.3%.
As to `O=C(Cn1c(=O)n(-c2ccc(Cl)cc2)c(=O)c2sc3ccccc3c21)NC1CCCCC1`, the “activity change, negative = cytotoxicity” value was inactive: 14.1%.
As to `COc1ccc(-c2cc(C(F)(F)F)nc(NCc3ccccc3)n2)cc1`, the “activity change, negative = cytotoxicity” value is inactive: 17.7%.
In the case of `Cc1ccccc1NC(=O)Cn1c(=O)n(-c2ccc(CC(=O)NCC3CCCO3)cc2)c(=O)c2ccccc21` (stereo unspecified), the “activity change, negative = cytotoxicity” value was inactive: 14.6%.
Consider `COc1cc(OC)c(NC(=O)CCn2cccn2)cc1Cl`, for which the “activity change, negative = cytotoxicity” value is inactive: 1.52%.
On to `CN(Cc1ccccc1)C(C(=O)NC1CCCCC1)c1ccc(Cl)cc1` (stereo unspecified), for which the “activity change, negative = cytotoxicity” value was inactive: -2.73%.
`Fc1ccc(C(Nc2ccc(Cl)c(C(F)(F)F)c2)c2nnc(-c3ccccc3)o2)cc1` (stereo unspecified): the “activity change, negative = cytotoxicity” value is inactive: -9.9%.
As to `COC(=O)c1ccc(Cl)cc1NC(=O)N1CCC(CN2CCCC2)CC1`, the “activity change, negative = cytotoxicity” value is inactive: -1.25%.
In the case of `Cc1ccc(C(=O)c2cn(Cc3ccccc3F)c3cc4c(cc3c2=O)OCO4)cc1`, the “activity change, negative = cytotoxicity” value was inactive: 2.25%.
Turning to `N#C/C(=C\c1ccc(Br)cc1)c1nc(-c2cc3cc(Br)ccc3oc2=O)cs1`, the “activity change, negative = cytotoxicity” value is inactive: 3.44%.
Consider `O=C(Nc1ccc(Br)cc1)c1ccc(Br)c(S(=O)(=O)N2CCCCC2)c1`, for which the “activity change, negative = cytotoxicity” value is inactive: -24.8%.
For the molecule `Cc1cn2c(=O)cc(COC(=O)c3cccc(NC(=O)COc4ccc(Cl)cc4)c3)nc2s1`, the “activity change, negative = cytotoxicity” value was inactive: -0.0303%.
Still for that read-out and setting: the same measure for `Cc1ccc(CCNC(=O)c2cc3sccc3n2Cc2ccc(F)cc2)cc1`: inactive: -5.31%.
In the case of `CCc1ccc(S(=O)(=O)c2c[nH]c3cc(OC)c(OC)cc3c2=O)cc1`, the “activity change, negative = cytotoxicity” value is inactive: -1.77%.
As to `COc1ccc2cc3cc(C(=O)NCCc4ccccc4)sc3nc2c1Cl`, the “activity change, negative = cytotoxicity” value was inactive: -2.88%.
In the case of `CCc1ccccc1N(C)S(=O)(=O)c1ccc2[nH]cc(C(=O)NCCOC)c(=O)c2c1`, the “activity change, negative = cytotoxicity” value was inactive: -0.449%.
Regarding `Cc1ccc(N2CCN(C(=O)c3c(C)oc4nc(C)nc(N5CCCC5)c34)CC2)c(C)c1`, the “activity change, negative = cytotoxicity” value is inactive: -14.1%.
In the case of `COc1cc(NS(=O)(=O)c2ccc(NC(=O)c3ccc(C(C)=O)cc3)cc2)nc(OC)n1`, the “activity change, negative = cytotoxicity” value was inactive: 13.9%.
Still for that read-out and setting: the same measure for `CCOC(=O)c1cccc(NC(=O)N2CC(CC)Oc3ccccc32)c1` (stereo unspecified): inactive: -0.718%; for `COc1ccc(NC(=O)c2sc3nc4c(cc3c2N)CCCCCC4)cc1Cl`: inactive: -19.3%; for `O=C(CSc1ncc2c(n1)-c1ccccc1N(Cc1ccc(F)cc1)S2(=O)=O)NCc1ccccc1`: inactive: 3.52%.
For `Cc1cccc(CNC(=O)CCCN2C(=O)COc3ccc(C)cc32)c1`, the “activity change, negative = cytotoxicity” value is inactive: -1.71%.
`CCn1c(=O)c2cc(C(=O)N(C)c3cc(Cl)c(OC)cc3OC)sc2c2ccccc21`: the “activity change, negative = cytotoxicity” value was inactive: 10.8%.
As for `Cc1cccc(-n2ncc(C(=O)NCc3ccco3)c2C2CCN(C(=O)OC(C)(C)C)CC2)c1`, the “activity change, negative = cytotoxicity” value is inactive: -22%.
As to `COc1ccc2cc3cc(C(=O)Nc4ccccc4C)oc3nc2c1`, the “activity change, negative = cytotoxicity” value was inactive: 5.24%.
`COc1ccc(NC(=O)CSc2nc(C)cc(C)c2C(=O)Nc2cccc(C)c2)cc1`: the “activity change, negative = cytotoxicity” value was inactive: 4.56%.
As for `COc1cccc(C(=O)Nc2ccccc2-c2nnc(-c3ccc(C(C)(C)C)cc3)o2)c1`, the “activity change, negative = cytotoxicity” value was inactive: 10.5%.
For `O=C(c1ccccc1Cl)N1CCN(CCc2ccccn2)CC1`, the “activity change, negative = cytotoxicity” value is inactive: 14.2%.
With `Cc1ccccc1NC(=O)c1ccc(F)c(S(=O)(=O)NC2CCCC2)c1`, the “activity change, negative = cytotoxicity” value was inactive: 13.6%.
Still for that read-out and setting: the same measure for `CCN1CCN(C(=O)c2ccc3c(c2)N(Cc2ccccc2F)C(=O)c2ccccc2S3(=O)=O)CC1`: inactive: 11.4%; for `C[C@@H](NC(=O)CN(c1ccccc1)S(=O)(=O)N(C)C)c1ccccc1`: inactive: 4.92%; for `CCCOC(=O)c1ccc(Nc2nc3ccccc3nc2-n2nc(C)cc2C)cc1`: inactive: -2.62%.
In the case of `CCOc1ccc(-c2cc(CCCC(=O)NCCc3ccc(OCC)c(OCC)c3)no2)cc1`, the “activity change, negative = cytotoxicity” value is inactive: -1.53%.
Still for that read-out and setting: the same measure for `CCOc1ccc(CCNC(=O)Cc2ccc(NC(=O)N3CCSc4ncccc43)cc2)cc1`: inactive: 2.74%.
As to `COc1ccc(-n2nc(C(=O)N3CCN(c4cccc(C(F)(F)F)c4)CC3)c3c4ccccc4n(C)c3c2=O)cc1Cl`, the “activity change, negative = cytotoxicity” value is inactive: 25.6%.
Regarding `COc1cc(OC)cc(C(=O)Nc2nc(-c3nnn(-c4ccc(F)c(Cl)c4)c3C)ns2)c1`, the “activity change, negative = cytotoxicity” value was inactive: -11%.
With `COc1cccc(N2CCN(C(=O)Cn3ncc4c5ccccc5n(C)c4c3=O)CC2)c1`, the “activity change, negative = cytotoxicity” value is inactive: -0.64%.
Regarding `Cc1cccc(-c2noc(-c3cc(-c4ccc(F)cc4)n[nH]3)n2)c1`, the “activity change, negative = cytotoxicity” value is inactive: 2.4%.
As for `Cc1oc2ncn(C)c(=O)c2c1C(=O)NCc1ccccc1`, the “activity change, negative = cytotoxicity” value was inactive: 6.93%.
With `CCOCCc1nn2c(=O)cc(COC(=O)c3ccco3)nc2s1`, the “activity change, negative = cytotoxicity” value is inactive: -0.314%.
`COc1cc(-c2noc(-c3ccc(N4CCCCC4)c([N+](=O)[O-])c3)n2)cc(OC)c1OC`: the “activity change, negative = cytotoxicity” value was inactive: 2.89%.
As to `O=C(Nc1ccc2oc(-c3cc(Br)ccc3Cl)nc2c1)c1ccc2ccccc2c1`, the Potency is active: 22.4 µM.
For the molecule `COc1cccc(CNC(=O)c2nnc(Cc3ccc(Cl)cc3)o2)c1`, the “activity change, negative = cytotoxicity” value was inactive: 5.07%.
Same read-out and setting: the same measure for `O=C(CSc1nc(O)c(C/C=C/c2ccccc2)c(=O)[nH]1)Nc1cccc(F)c1`: inactive: -9.9%; for `CC(C)(C)c1ccc(S(=O)(=O)N2CCN(C(=O)c3cc(-c4ccc(Br)cc4)n[nH]3)CC2)cc1`: inactive: 2.31%.
Consider `O=C(NCc1ccc(Cl)cc1)C1CCN(S(=O)(=O)c2ccc3c(c2)CCCN3C(=O)C2CCC2)CC1`, for which the “activity change, negative = cytotoxicity” value is inactive: -4.43%.
With `CCOc1ccc(NC(=O)c2noc3c2CSc2ccccc2-3)cc1`, the “activity change, negative = cytotoxicity” value was inactive: 2.14%.
In the case of `COc1ccc(-n2c(SCC(=O)NCc3ccccc3)nc3n[nH]c(C)c3c2=N)cc1`, the “activity change, negative = cytotoxicity” value was inactive: -17.4%.
Take `CCCn1c(=O)c2sccc2n2c(CCCC(=O)Nc3ccccc3F)nnc12`: the “activity change, negative = cytotoxicity” value was inactive: 11.3%.
Regarding `CN(C(=O)c1oc(=O)c2ccccc2c1-c1ccccc1)c1cccc(Cl)c1`, the “activity change, negative = cytotoxicity” value was inactive: -21.2%.
Take `COc1cccc(N2CCN(C(=O)Cn3ncc4c(=O)oc5ccccc5c43)CC2)c1`: the “activity change, negative = cytotoxicity” value is inactive: 18.5%.
As to `O=C1CC(c2cccc(F)c2)c2c(n3ncnc3[nH]c2=O)N1` (stereo unspecified), the “activity change, negative = cytotoxicity” value is inactive: 3.86%.
As for `CCOC(=O)Cn1c(=O)n(C2CCCCC2)c2nc(-c3cccc(C)c3)nc(C(N)=O)c21`, the “activity change, negative = cytotoxicity” value is inactive: 9.64%.
Regarding `O=C(CSc1ccc(-c2cccs2)nn1)Nc1cccc(F)c1`, the “activity change, negative = cytotoxicity” value is inactive: -23.6%.
For `COc1ccccc1N1CCN(c2ncnc3onc(C)c23)CC1`, the “activity change, negative = cytotoxicity” value is inactive: 1.36%.
For `COc1ccc(-c2cc(C)no2)cc1S(=O)(=O)N1CC(C)Oc2ccccc21` (stereo unspecified), the “activity change, negative = cytotoxicity” value is inactive: -0.192%.
As for `COc1ccc(CNC(=O)C(C)n2nc(C)c3sc4ccccc4c3c2=O)cc1OC` (stereo unspecified), the “activity change, negative = cytotoxicity” value was inactive: -5.22%.
Consider `CCOC(=O)c1cc2c(=O)n3ccccc3nc2n(CC2CCCO2)c1=NC(=O)c1ccccc1F` (stereo unspecified), for which the “activity change, negative = cytotoxicity” value was inactive: -2.9%.
With `Cc1ccccc1NC(=O)CSc1nnc(-c2cccc(Cl)c2)o1`, the “activity change, negative = cytotoxicity” value was inactive: 14.3%.
Turning to `O=C(CSc1n[nH]c(-c2ccccc2)n1)NCCc1ccccc1`, the “activity change, negative = cytotoxicity” value is inactive: 5.07%.
On to `COc1cccc(CNC(=O)CCS(=O)(=O)c2cc3c4c(c2)CCN4C(=O)CC3)c1`, for which the “activity change, negative = cytotoxicity” value is inactive: -16.2%.
